# Biological target: T1, human topoisomerase II (Homo sapiens, UniProt P11388)
# T1 construct: purchased Topogen Inc., Port Orange, USA TG1001
# Assay: Inhibition of topoisomerases activity in vitro, Topogen protocol TG1001 (Table 7)
# Assay type: biochemical
# T1 sequence (P11388 whole entry): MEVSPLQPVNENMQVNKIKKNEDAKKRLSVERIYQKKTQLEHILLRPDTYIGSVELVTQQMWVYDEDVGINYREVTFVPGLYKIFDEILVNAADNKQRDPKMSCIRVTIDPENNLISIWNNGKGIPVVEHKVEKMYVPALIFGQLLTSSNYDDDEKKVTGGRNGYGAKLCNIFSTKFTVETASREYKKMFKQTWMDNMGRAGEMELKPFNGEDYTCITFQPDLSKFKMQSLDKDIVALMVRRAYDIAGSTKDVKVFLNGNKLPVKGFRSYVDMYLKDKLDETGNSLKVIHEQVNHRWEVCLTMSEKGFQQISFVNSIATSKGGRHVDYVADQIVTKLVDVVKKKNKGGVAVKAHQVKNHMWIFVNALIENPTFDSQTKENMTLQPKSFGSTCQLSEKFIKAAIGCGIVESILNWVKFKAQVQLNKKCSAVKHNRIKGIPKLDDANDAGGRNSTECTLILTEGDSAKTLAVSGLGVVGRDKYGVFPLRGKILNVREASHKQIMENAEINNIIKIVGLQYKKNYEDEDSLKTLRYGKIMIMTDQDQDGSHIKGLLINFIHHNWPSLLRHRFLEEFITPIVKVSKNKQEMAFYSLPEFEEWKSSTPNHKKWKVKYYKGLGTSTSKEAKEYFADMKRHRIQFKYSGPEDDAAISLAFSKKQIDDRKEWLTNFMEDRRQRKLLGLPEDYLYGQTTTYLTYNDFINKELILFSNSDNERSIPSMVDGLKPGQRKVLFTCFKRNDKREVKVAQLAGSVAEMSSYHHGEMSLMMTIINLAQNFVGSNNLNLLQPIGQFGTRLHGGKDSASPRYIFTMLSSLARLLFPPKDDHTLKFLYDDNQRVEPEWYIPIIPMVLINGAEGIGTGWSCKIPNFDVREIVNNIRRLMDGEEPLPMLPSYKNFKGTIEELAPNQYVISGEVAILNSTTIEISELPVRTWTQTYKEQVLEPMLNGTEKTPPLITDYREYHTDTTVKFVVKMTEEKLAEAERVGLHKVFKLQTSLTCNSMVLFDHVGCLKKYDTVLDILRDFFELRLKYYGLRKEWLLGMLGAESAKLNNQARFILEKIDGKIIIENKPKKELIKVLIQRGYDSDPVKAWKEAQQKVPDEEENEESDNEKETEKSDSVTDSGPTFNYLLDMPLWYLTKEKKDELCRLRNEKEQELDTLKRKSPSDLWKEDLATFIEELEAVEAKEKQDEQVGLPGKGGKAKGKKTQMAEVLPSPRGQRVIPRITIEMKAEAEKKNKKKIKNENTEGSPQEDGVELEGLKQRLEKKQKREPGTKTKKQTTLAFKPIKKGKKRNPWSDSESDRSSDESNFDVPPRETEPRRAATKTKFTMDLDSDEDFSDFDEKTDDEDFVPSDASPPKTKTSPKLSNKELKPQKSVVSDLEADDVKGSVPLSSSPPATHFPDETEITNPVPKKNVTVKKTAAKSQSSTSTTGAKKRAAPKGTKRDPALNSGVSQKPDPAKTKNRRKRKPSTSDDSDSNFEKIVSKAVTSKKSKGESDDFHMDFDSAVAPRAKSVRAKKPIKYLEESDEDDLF
structure (smiles),measurement,value
"Cc1c(-c2cc(F)c(N)cc2F)ccn2c(=O)c(C(=O)[O-])cc(C3CC3)c12.[K+] [Example 28 K salt, potassium 8-(4-amino-2,5-difluoro-phenyl)-1-cyclopropyl-9-methyl-4-oxo-4H-quinolizine-3-carboxylate]",IC50,68 µM
"Cc1c(-c2ccc3[nH]ncc3c2)ccn2c(=O)c(C(=O)[O-])cc(C3CC3)c12.[K+] [Example 23 K salt, potassium 1-cyclopropyl-8-(1H-indazol-5-yl)-9-methyl-4-oxo-4H-quinolizine-3-carboxylate]",IC50,> 35 µM

# Source: patent US8962842B2, “2-pyridone antimicrobial compositions” (priority 2010, dated 2015)
